In publication PMC4336329 (PLoS ONE, 2015):
Screen size: about 310,000 compounds; about 14,000 (4.5%) showed an effect of 50% or more. Effects have a minus sign here. Some of the results follow.

What follows are compounds tested against human ether-à-go-go-related gene (hERG) potassium channel (human, UniProt Q12809) (assay: primary screen, population patch clamp on CHO cells stably expressing hERG).
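Further: peak tail current of the secondary pulse compared with the same well before compound.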

Sequence of human ether-à-go-go-related gene (hERG) potassium channel (Q12809 whole entry, looked up): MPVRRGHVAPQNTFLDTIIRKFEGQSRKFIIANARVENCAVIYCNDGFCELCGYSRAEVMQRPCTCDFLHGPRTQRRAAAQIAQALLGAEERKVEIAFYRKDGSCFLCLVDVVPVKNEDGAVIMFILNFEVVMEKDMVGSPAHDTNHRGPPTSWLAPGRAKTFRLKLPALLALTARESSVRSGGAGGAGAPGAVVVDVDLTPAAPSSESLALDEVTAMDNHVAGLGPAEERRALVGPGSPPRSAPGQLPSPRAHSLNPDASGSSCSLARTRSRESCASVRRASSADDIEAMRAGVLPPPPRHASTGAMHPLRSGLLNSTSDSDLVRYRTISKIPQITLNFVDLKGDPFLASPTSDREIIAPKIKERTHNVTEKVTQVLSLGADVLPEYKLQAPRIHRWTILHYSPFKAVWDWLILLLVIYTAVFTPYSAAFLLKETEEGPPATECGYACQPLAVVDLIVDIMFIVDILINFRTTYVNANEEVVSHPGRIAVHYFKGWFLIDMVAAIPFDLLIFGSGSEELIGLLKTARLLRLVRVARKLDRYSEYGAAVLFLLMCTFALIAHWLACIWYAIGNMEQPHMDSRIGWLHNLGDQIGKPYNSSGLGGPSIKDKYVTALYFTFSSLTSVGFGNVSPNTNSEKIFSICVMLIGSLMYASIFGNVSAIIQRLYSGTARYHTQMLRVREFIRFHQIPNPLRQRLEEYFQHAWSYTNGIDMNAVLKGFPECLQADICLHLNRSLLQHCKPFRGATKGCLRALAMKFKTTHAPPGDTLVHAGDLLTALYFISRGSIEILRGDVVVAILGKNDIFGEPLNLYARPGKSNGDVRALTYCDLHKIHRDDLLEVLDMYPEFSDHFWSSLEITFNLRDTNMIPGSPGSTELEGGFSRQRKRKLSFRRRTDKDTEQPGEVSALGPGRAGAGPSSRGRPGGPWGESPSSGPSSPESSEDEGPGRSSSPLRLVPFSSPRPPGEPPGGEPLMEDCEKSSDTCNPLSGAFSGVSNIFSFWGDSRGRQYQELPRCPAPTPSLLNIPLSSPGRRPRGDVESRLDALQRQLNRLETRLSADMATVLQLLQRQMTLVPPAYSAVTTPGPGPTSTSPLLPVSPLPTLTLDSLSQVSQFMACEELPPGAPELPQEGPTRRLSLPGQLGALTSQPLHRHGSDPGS

| Structure (SMILES) | hERG current change (%, negative = inhibition) at 10uM |
| --- | --- |
| COc1cc(C)c(C(C)C)cc1S(=O)(=O)n1cnc(C)c1 | -14% |
| COc1ccc(S(=O)(=O)Cc2ccc(C(=O)NCc3ccc(C)cc3)o2)cc1 | -24.5% |
| CCOc1ccc(S(=O)(=O)n2nnc3ccccc32)cc1C | 14.6% |
| Nc1cc(=O)[nH]c(SCC(=O)Nc2ccc(Cl)c(Cl)c2)n1 | 1.27% |
| O=C(CCc1nc2ccccc2n1-c1ccccc1)NCCO | 6.97% |
| COC(=O)C1CCN(C(=O)CN(C)Cc2ccc(C(C)(C)C)cc2)CC1 | -16.7% |
| Cc1cc(N2CCN(S(=O)(=O)c3ccc(Br)cc3)CC2)n2ncnc2n1 | -76.9% |
| Cc1ccc(C)c(C(=O)CN2C(=O)c3ccccc3C2=O)c1 | 9.96% |
| CC(C)NC(=O)CSc1nnc2sc3ccccc3n12 | -9.02% |
| COc1ccc(CCN(C)Cc2cccc3ccccc23)cc1OC | -73.8% |
| CC(C)N1C(=O)c2ccccc2C1C(=O)NCCc1ccccc1 (stereo not drawn) | 13.7% |
| COC(=O)c1sc(=S)n(Cc2ccccc2)c1C | -0.144% |
| Br.O=C(N/N=C/c1sc(N2CCOCC2)nc1-c1ccccc1)c1cccc(S(=O)(=O)N2CCOCC2)c1 | -2.04% |
| Nc1cc(-c2ccco2)no1 | -8.15% |
| CCN(CC)CCOC(=O)/C=C/c1ccccc1OC.Cl | -20% |
| Cc1cc(NC(=O)CN2CCN(S(=O)(=O)c3ccc4ccccc4c3)CC2)no1 | -14.7% |
| CCCCC1CCC(C(=O)OCC(=O)Nc2ccc(S(N)(=O)=O)cc2)CC1 (stereo not drawn) | 4.59% |
| CN(Cc1ccccc1)c1nc(N)nc(Cl)c1C=O | -12% |
| CCN(CC)c1nc(-c2ccccc2)nc2c1sc(=S)n2CC | 25.2% |
| COc1ccc(C2NC(=S)NC(C)=C2C(=O)Nc2ccccn2)cc1OC (stereo not drawn) | 22.1% |
| CCn1c(CO)nc2c1c(=O)[nH]c(=O)n2Cc1ccccc1 | 17.7% |
| Cc1cc(OCC(=O)C(C)(C)C)c2c(-c3ccccc3)cc(=O)oc2c1 | -22.4% |

| Structure (SMILES) | hERG current change (%, negative = inhibition) at 10uM |
| --- | --- |
| CCc1cc2cc(C)cc(C)c2nc1SCC(=O)Nc1cc(C)on1 | 17.4% |
| O=C(C1CCN(S(=O)(=O)c2ccc(Cl)cc2)CC1)N1CCN(c2ccccn2)CC1 | -64.7% |
| CCOC(=O)c1c(C)n(C(C)C)c2ccc(OC)cc12 | 7.11% |
| O=C(NC12CC3CC(CC(C3)C1)C2)c1cc([N+](=O)[O-])ccc1Cl | -5.77% |
| COc1ccc2[nH]c3c(NCCN4CCCCC4)ncnc3c2c1 | -55.9% |
| COC(CNC(=O)C1CCC(CNS(=O)(=O)c2c(C)cc(C)cc2C)CC1)OC (stereo not drawn) | -26% |
| NC(=O)CSC1=N/C(=C\c2ccco2)C(=O)N1c1ccc(OC(F)F)cc1 | -2.31% |
| O=C1C(Cl)=C(Nc2ccc(F)cc2)C(=O)N1CCc1ccccc1 | 6.71% |
| CCOC(=O)C1CCCN1C(=O)c1ccc(OC)c(Br)c1 (stereo not drawn) | -2.58% |
| O=C(N/N=C/c1cnc(N2CCCCC2)s1)c1ccc(Cl)cc1 | 5.94% |
| CC(c1ccccc1)n1c(CCCO)nc2ccccc21 (stereo not drawn) | -2.26% |
| Cc1sccc1/C=N/NC(=O)c1cccc2ccccc12 | 11.1% |
| O=[N+]([O-])c1ccc(N2CCNCC2)c(S(=O)(=O)N2CCOCC2)c1 | 11.7% |
| CC(=O)Nc1nc(NC(=O)C(Cl)(Cl)Cl)n(-c2ccccc2)n1 | 7.98% |
| O=C(NCCCN1CCOCC1)c1ccccc1-c1ccccc1 | -0.98% |
| Cc1cccc(C)c1NC(=O)CN(C)C(=O)Cn1c(=O)cnc2ccccc21 | 26.2% |
| O=C(Nc1ccc(S(=O)(=O)Nc2nccs2)cc1)c1cc(=O)[nH]c2ccccc12 | 15.6% |
| O=C(CN1CCCC1)Nc1ccc(S(=O)(=O)N2CCCCC2)cc1 | 4.2% |
| COC(=O)c1c(C)oc2ccc(N(C(=O)c3ccncc3)S(=O)(=O)c3ccc(C)cc3C)cc12 | -1.99% |
| O=C(c1ccncc1)N1CCN(S(=O)(=O)c2cccc(Cl)c2)CC1 | -13.3% |
| CCc1ccc(NC(=O)C(C)OC(=O)CC(NC(C)=O)c2ccccc2)cc1 (stereo not drawn) | -2.09% |
| Cc1ccc(C)c(NC(=O)c2cnn3ccccc23)c1 | 11% |

| Structure (SMILES) | hERG current change (%, negative = inhibition) at 10uM |
| --- | --- |
| CCOc1ccc2nc(N(CCN(CC)CC)C(=O)c3ccc([N+](=O)[O-])cc3)sc2c1.Cl | -65.7% |
| Cn1c(=O)c2c(ncn2CC(=O)OCC(=O)NNC(=O)c2ccc(Cl)cc2)n(C)c1=O | -4.15% |
| O=c1ccnc(S/C=C/c2ccccc2)[nH]1 | -26.6% |
| CCCCCCCCCCCCN1[C@@H](CC(C)=O)c2cc(C(F)(F)F)ccc2S1(=O)=O | 17.7% |
| CC(C)OC(=O)NCCOC(=O)Nc1ccc(Cl)c(Cl)c1 | -10.9% |
| O.O=CC(=O)c1ccccc1 | 25.8% |
| O=C(NNC(=O)c1ccco1)Nc1ccccc1 | 7.95% |
| Cc1ccc(/C=N/N2CCN(C3c4ccccc4-c4ccccc43)CC2)s1 | 0.486% |
| O=C(NC1CCCCC1)N1CCN(c2ccccc2)CC1 | -0.0694% |
| O=C1NC[C@@H](Cc2cccc3ccccc23)N(CCCCC2CCCCC2)C1=O | 12.7% |
| COc1ccc(C2C(C(=O)Nc3cc(OC)c(OC)c(OC)c3)c3ccccc3C(=O)N2C)cc1OC (stereo not drawn) | 7.71% |
| COc1ccccc1-c1c(C)nn2c(N3CCC(C(N)=O)CC3)cc(C)nc12 | 10.5% |
| Cc1nnc(NC(=O)CSc2nnc(CCc3nc4ccccc4[nH]3)n2C)s1 | -4.75% |
| Cl.c1ccc2c3c([nH]c2c1)CCNC3 | 13.7% |
| COc1ccc(Br)cc1C(=O)Nc1ccc(O)cc1 | -13.5% |
| CCCc1cc(=O)oc2cc(OC(C)C(=O)NC3CC(C)(C)NC(C)(C)C3)ccc12 (stereo not drawn) | -45.9% |
| CCOC(=O)C(=Cc1ccc(-c2ccsc2C(=O)OC)o1)C(=O)OCC | -8.29% |
| COc1cc(S(=O)(=O)N2CCOCC2)ccc1NC(=O)c1cc2c(s1)CCC2 | -15.3% |
| COc1ccccc1N1CCN(C2CCCN(Cc3c(F)cccc3F)C2)CC1 (stereo not drawn) | -16.3% |
| CC1=C(C(=O)Nc2ccc(Cl)cc2)C(c2cccs2)n2nnnc2N1 (stereo not drawn) | -18.7% |
| Cc1cccc(NC(=O)CCCn2c(=S)[nH]c3ccccc3c2=O)c1 | 4.4% |
| COc1ccccc1NS(=O)(=O)c1ccc(C(=O)OCC(=O)NCc2ccco2)cc1 | 7.71% |

| Structure (SMILES) | hERG current change (%, negative = inhibition) at 10uM |
| --- | --- |
| Cc1ccccc1CN1CCCOCCS1(=O)=O | -0.4% |
| COc1cccc(NC(=S)N2CCN(S(=O)(=O)c3ccccc3)CC2)c1 | -2.98% |
| Cn1c(=O)c2c(nc(CN3CCc4ccccc4C3)n2Cc2cccc(Cl)c2)n(C)c1=O | -53.9% |
| C=C1C(=O)O[C@@H]2C[C@@H](C)[C@@H]3C=CC(=O)[C@@]3(C)[C@@H](O)[C@H]12 | -2.06% |
| Br.COc1ccc(-c2csc(=NCCO)n2-c2ccccc2)cc1 | -35.6% |
| CCn1cc(C(=O)NCCC(C)C)c(=O)c2cc(S(=O)(=O)N3CCCCC3)ccc21 | -7.53% |
| COC(=O)c1ccccc1NC(=O)c1c(Br)cnn1C | -4.63% |
| Cc1cccc(-n2c(SCC(=O)N3CCCC3)nc3n[nH]c(C)c3c2=N)c1 | -9.34% |
| COc1cccc(OC)c1C(=O)Nc1cc2c(cc1N1CCOCC1)n(C)c(=O)n2C | 13.2% |
| COc1ccc(Br)cc1CNc1ccc(S(N)(=O)=O)cc1 | -14.1% |
| COc1cc(/C=C/C(=O)O)cc(S(=O)(=O)Nc2ccc(F)cc2)c1OC | 20.4% |
| CC1(C)Cc2c(sc3nc(-c4ccccc4)oc(=O)c23)CO1 | 10.3% |
| COC(=O)C1=C(c2ccc(-c3ccccc3)c(F)c2)C[C@@H]2CC[C@H]1N2C(=O)NC1CC1 | -12.3% |
| O=C(CCN1C(=O)/C(=C/c2ccccc2)SC1=S)NNC(=O)c1cccnc1 | 15.1% |
| COc1ccc(-n2nnnc2SCC(=O)Nc2ccccc2N2CCOCC2)cc1 | -41.2% |
| COc1ccc2[nH]cc(CCNC(=O)C3CC(=O)N(c4ccc(Cl)cc4)C3)c2c1 (stereo not drawn) | -10.4% |
| O=C(Cn1nc(-c2ccc(Cl)cc2)c2ccccc2c1=O)Nc1cccnc1 | -10.3% |
| COc1cccc(-c2cc(C(=O)N3CC4(C)CC3CC(C)(C)C4)no2)c1 (stereo not drawn) | -10.3% |
| Cc1cc(NS(=O)(=O)c2ccc(NC(=O)/C=C/c3cccc(Cl)c3)cc2)no1 | 14.2% |
| O=C(/C=C/c1cccs1)N1CCC2(CC1)Oc1ccc(Cl)cc1C(=O)C21CC(c2ccccc2)=NO1 (stereo not drawn) | 22.9% |
| O=C(COc1coc(CN2CCc3ccccc3C2)cc1=O)Nc1ccccc1F | 3.54% |
